Test results published in the supplement of paper PMC10126150.
Sequences with one replicate were seen in a single cluster, so their values are uncertain.

System: ATP
Experiment: switch fluorescence ratio, 500 uM ATP over buffer (Cy3 cluster intensity, sum of 5 cycles each) (fold (ratio)); higher = stronger signal-on switching upon ATP binding; sequences stand for … in TCGTCGGCAGCGTCAGATGTGTATAAGAGACAGTTTTTTTTTTTTTTTTTTTTTTTTT…TC
Details: aptamer strand: ATP DNA aptamer (quencher-CACCTGGGGGAGTATTGCGGAGGAAGG + anchor), 100 nM annealed; ATP concentration: 500 uM; one replicate
In short: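 Switching-strand clusters labelled with Cy3 on a modified Illumina MiSeq flow-cell were annealed to 100 nM quencher-labelled ATP aptamer, imaged in selection buffer, and re-imaged after 15 min with 500 uM ATP at 22 °C. This was done over five cycles with NaOH stripping and re-annealing in between. The fluorescence ratio is summed target-cycle over summed buffer-cycle Cy3 intensity per cluster, averaged per switch-domain sequence, excluding clusters outside 100-1000 RFU.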
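Also: ATP exposure 15 min at 22 °C before imaging.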

Sequence	switch fluorescence ratio
GTCACCCGCT	1.07
ATGCAGGATC	1.03
GCGAAACCGT	1.11
TGGAATTCGT	1
AGATCGGGGT	0.95
AACCCTACAT	1.12
ATGAAAACCC	0.976
GCGCAAGAG	3.33
ATGTGTATTC	1.02
CGGCACGGCC	0.986
TAGCCGCAGC	1.25
CATAGGAGGA	1.01
CCAAAGTGGA	1.05
TTAGTCGTAT	0.979
CAAGGAGTGC	1.05
AGGGACTCTT	1.01
GTGACAGAAG	1.01
TCAGTAAGG	0.991
CTTGGGTAAT	1.01
GTGGGGCTTG	0.995
TGCCGACCTA	1.06
TCTGGCGTCC	1.02
TGGCAATTTA	1
GTCGTGAGTG	1.01
TACAATAGAA	0.995

Sequence	switch fluorescence ratio
CCTGTACCTT	1.1
TCGGATAACG	1.04
CCGTTCGATC	1.38
CCGGTGACAA	2.96
CAGGGTTCAA	0.978
CTCAAGGGA	0.974
GTCCTAGGGG	1.09
TGGTAAGGTT	0.964
CAATGTATCG	0.962
ACTGTATGTT	1.11
GATTGGGATG	0.968
TACCAGGATG	1.28
CCTTAGTCCT	1.23
TCAAATCACG	1.05
ATTGCTTTCT	1.02
GTGTTTCAGC	1
GGGTGAGTGC	0.913
CAACTTAAGA	1.01
CACAATCAGC	1.05
AGATGATATC	1
AGTACATGTT	1.02
TTTCAGCGCG	0.986
TGTTATGCGA	0.981
TAGCGTTC	1.04
GTGTAAAAAC	1.02

Sequence	switch fluorescence ratio
GCGCAGGGCT	1.17
CACACATTGA	0.979
AGAAGATACG	1.05
GCATTTTCGC	1.02
AGCGCAAGAA	2.66
AACGGAGGGC	0.965
GGCGTCCGAT	1.04
AATCGGTAAA	1.01
GTATTAGTAC	0.959
TTAAGTTCGT	0.963
GAATTGGCGC	0.999
CAGGTAAAAA	0.985
CTAATCCTAT	0.986
GATACCGATG	1.01
TTTGTCCGAA	1.06
GCTCTGGGAA	1.16
GCCGGTAAAC	0.998
CCCCCGTATT	2.44
TGTTGCGACT	1.06
CGGTTGCGG	1.01
TGAATCTCAG	0.984
GCGAGCTAGT	1.02
CTACATGCAC	1.26
TAGCTATGTA	1.01
CGGCGTGAGA	1.16

Sequence	switch fluorescence ratio
GTTTGGTCAT	1.07
ATCCCGAGTG	1.21
TTAATGGGG	0.941
GTGAATTTCA	1.01
CACGTCACGA	1.56
TAGAGCTGCG	0.981
ACGTGCCGAA	0.977
TATTGGAAGA	1
CAATAAGTCG	0.974
TATTGTAAGG	0.993
CTTTTCCGAC	1.66
AACACCGGCG	1.05
CCGGGGTTTA	1
TGGAGGAGTC	1.01
ACTTAATTT	0.977
TTCCTCACTT	1.13
GTCAGGCTTG	1.02
CTGATAAA	0.967
TGCCTTGGAT	1.03
CAAGAGGTTG	1.06
ACCCGGGGAA	1.37
CACGCTAACC	1.39
ACGATCATA	0.982
CTCGGGGAAC	1.09
CCCTTCAGGG	0.978

Sequence	switch fluorescence ratio
TTCCTCCGGA	1.16
TCAATCCTGT	0.993
GGAAGGTAGT	1
CATGGGGATA	0.988
TATCAGTAAA	0.998
TACACTTACC	1.3
CACTGAGGGG	1.05
TTTCATAATG	0.981
ACTATAAAAT	1.05
TAATCGGAGC	0.957
TGCGCTATTC	2.52
GACGGATTAC	3.36
CTTGCGTTTT	0.989
CATTAAAATC	0.994
ACAACAAGAC	1.63
TATTGGTGGA	0.984
TGGCAGTGAA	0.997
GAGTCAGGCC	1.02
GTGTGAACTG	1.04
GGGGCACGTA	1.03
CCTATATGGA	0.977
AAGTAACTGG	1.03
AATTGCGGCT	0.961
TTTGTTGCCG	1.14
CGGTGCAATT	1.07

Sequence	switch fluorescence ratio
GAGTATTTTT	1.03
TCTGATGCCT	1.09
CGCTGGAGGT	0.976
CAGATCGGCT	1.09
GCTTTCTAGT	0.963
GGCAGAATCC	1.01
GGACGACGCG	1.07
AGGAGAATCG	1.04
CCCTGTGCCC	1.05
AAGTACGCAA	3.92
TTCACTAGTC	1
ATTTAAGTTC	1.04
CTCGTCAGTC	1.09
GCAGTATAAC	1.08
TAGACTTACG	1.02
CGCTCGAGAG	1.01
AATGGTATTA	0.999
AGCGATAAGG	1.02
ACTTGATGTC	0.945
ATTACCTCAA	1.01
TTATTAAGT	1.02
GTCCTTATGG	0.971
GGATGAAGAA	1.02
CAATTGCACT	1.02
CCTCCTTAGC	1.71

Sequence	switch fluorescence ratio
ATATCCAAAT	1
CCAAGGCTCA	1.11
GACTAGTGCT	1.01
ATTTCATAGT	0.983
TATTGACGAT	1.08
AGTACGTTAA	1.21
CGGGCGGA	1.04
GTTGTTGTAT	1.01
ATGCTTTGTA	1.02
AGACCCAGTT	0.986
AGCACCGTCG	1.03
GCCAACCTTT	0.999
CGATGGAGTT	0.965
CATAATCTGA	0.986
ACAAGAGCGG	1.02
TGCGGTCGGT	0.969
TGATTCCATG	0.987
CGCTCAACAA	1.26
TGAACTATCA	0.991
TAAACTGTG	1.02
GTAGAAGCTG	1.01
ACGATCTGGT	0.997
CGTTTGAAGA	0.97
GGAACCACTT	1.01
CAGCCCGTTG	1

Sequence	switch fluorescence ratio
GAGAAAAGTC	1
CGCCTAGTA	0.965
CGCGACTTAT	1.1
GAGGGAGAT	0.963
TTACCATCCA	1.01
GCTATACATA	1.08
TGGCGTTTAG	0.957
GCGTAGGAAT	1.2
TTGACTGTAT	1.02
GAGCACTGTG	1.03
ACACAAGCAG	1.09
TCCGGTTCTC	1.13
GGCGAGCCTC	1.02
ACCATGCGCA	1.04
CAACAAAAAT	0.911
CATTTCCCGC	1.51
GCTTCAACGC	1.29
TACATTACT	1.35
TCGTCATTGT	0.964
AACTCCTAAA	1.05
CATAACAAGA	1.01
TTTATTATAC	1.07
CAGGTGTCTT	1.43
ACCTGCCCTT	1.11
TGCGGGATGC	1.13
